The values below come from publication PMC4336329 (PLoS ONE, 2015).

Hit rate of the full screen: of about 310,000 compounds, about 14,000 (4.5%) showed an effect of 50% or more. Effects have a minus sign here. This is one part of the list.
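Note: peak tail current of the secondary pulse compared with the same well before compound.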

In the experiment the target is human ether-à-go-go-related gene (hERG) potassium channel (human, UniProt Q12809). Put plainly: primary screen, population patch clamp on CHO cells stably expressing hERG.
human ether-à-go-go-related gene (hERG) potassium channel, sequence (Q12809 whole entry, looked up): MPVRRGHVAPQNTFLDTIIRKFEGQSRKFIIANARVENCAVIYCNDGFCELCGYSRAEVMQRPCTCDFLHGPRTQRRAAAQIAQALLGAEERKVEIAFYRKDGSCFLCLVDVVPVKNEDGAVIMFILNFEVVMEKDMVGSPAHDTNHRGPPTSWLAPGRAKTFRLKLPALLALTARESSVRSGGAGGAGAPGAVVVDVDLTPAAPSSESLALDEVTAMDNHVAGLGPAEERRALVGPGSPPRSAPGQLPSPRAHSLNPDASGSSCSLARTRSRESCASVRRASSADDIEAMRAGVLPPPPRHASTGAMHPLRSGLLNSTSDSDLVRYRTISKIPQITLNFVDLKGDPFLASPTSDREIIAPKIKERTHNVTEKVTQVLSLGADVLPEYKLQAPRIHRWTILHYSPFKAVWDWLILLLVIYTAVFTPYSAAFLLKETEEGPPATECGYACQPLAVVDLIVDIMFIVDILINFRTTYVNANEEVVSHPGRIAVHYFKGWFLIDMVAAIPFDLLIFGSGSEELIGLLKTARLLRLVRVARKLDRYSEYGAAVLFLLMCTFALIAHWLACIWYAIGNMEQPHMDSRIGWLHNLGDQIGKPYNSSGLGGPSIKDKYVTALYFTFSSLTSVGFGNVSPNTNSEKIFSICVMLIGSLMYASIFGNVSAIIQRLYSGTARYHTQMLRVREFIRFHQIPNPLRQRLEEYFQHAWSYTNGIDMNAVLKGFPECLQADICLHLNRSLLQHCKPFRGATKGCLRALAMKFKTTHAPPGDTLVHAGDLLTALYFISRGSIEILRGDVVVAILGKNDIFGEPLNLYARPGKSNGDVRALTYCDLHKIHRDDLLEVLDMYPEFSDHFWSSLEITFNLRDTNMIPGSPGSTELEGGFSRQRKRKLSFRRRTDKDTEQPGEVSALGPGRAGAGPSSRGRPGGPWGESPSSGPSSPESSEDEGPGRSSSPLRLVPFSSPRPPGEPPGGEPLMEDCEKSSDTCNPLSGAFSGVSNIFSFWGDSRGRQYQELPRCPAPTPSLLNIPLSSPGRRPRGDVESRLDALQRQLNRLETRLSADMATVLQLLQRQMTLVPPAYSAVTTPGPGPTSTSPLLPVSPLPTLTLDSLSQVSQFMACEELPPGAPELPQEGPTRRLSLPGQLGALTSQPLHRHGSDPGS
As for `Oc1ccc(Cl)cc1CNn1cnnc1`, the “hERG current change (%, negative = inhibition) at 10uM” value is given as 22%. As for `Cc1ccc(NC(=O)CCc2nnc3ccc(NCc4ccco4)nn23)cc1F`, the “hERG current change (%, negative = inhibition) at 10uM” value is listed as -70.9%. To `COc1ccc(C(=O)Nc2nnc(SCC(=O)NCc3ccco3)s2)cc1OC` belongs -1.6%; to `CC(C)(C)C(=O)NC1(C(F)(F)F)N=C2SCCN2C1=O` (stereo not drawn), -4.77%; to `CC(C)CCn1c(=O)c2ccccc2n2c(CCl)nnc12`, -32.8%. In the case of `COc1ccc(OC)c(C2NC(=O)c3sc(=S)n(-c4ccccc4)c3N2)c1` (stereo not drawn), the “hERG current change (%, negative = inhibition) at 10uM” value is recorded as -27%.

With `O=[N+]([O-])c1ccc(C2=NN(CCO)C(=Nc3ccc(OC(F)(F)F)cc3)SC2)cc1`, the “hERG current change (%, negative = inhibition) at 10uM” value is -13.5%. Regarding `CNC(=O)N(C)c1ccc(C(O)(C(=O)OC)C(F)(F)F)cc1` (stereo not drawn), the “hERG current change (%, negative = inhibition) at 10uM” value came to 4.55%. The value for `CCOC(=O)c1cc(-c2ccccc2)sc1NC(=O)C(C)OC(=O)c1cccc(S(=O)(=O)N(C)C)c1` (stereo not drawn) was 7.41%; that for `Cl.O=C(Oc1cccnc1)c1ccc(Cl)cc1` was -21.3%; that for `NC(=O)COC(=O)c1cc(=O)[nH]c2ccc(S(=O)(=O)Nc3ccc(F)cc3)cc12` was 21.9%. For `CCN(CC)S(=O)(=O)c1cccc(C(=O)Nc2nc3cc4c(cc3s2)OCCO4)c1`, the “hERG current change (%, negative = inhibition) at 10uM” value is reported as 0.652%.

In the case of `CC(OC(=O)Cn1[nH]c(=O)c2ccccc2c1=O)C(=O)Nc1ccc(Cl)cn1` (stereo not drawn), the “hERG current change (%, negative = inhibition) at 10uM” value is on record as -8.11%. To `COc1ccccc1C(=O)Nc1ccc(CN2CCCCC2)cc1` belongs -28.4%; to `CCCCn1ccnc1C(=O)c1ccc(S(=O)(=O)N(CCOC)CCOC)cc1`, -1.47%. The value for `Cc1onc(-c2ccccc2Cl)c1C(O)c1ccc(F)cc1` (stereo not drawn) was 9.8%; that for `COc1ccc(S(=O)(=O)N2CCOCC2)c(C)c1C` was 5.99%.

On to `COc1ccc(N2CCN(c3ccc(N4C(=O)CC(C)C4=O)cc3[N+](=O)[O-])CC2)cc1` (stereo not drawn), for which the “hERG current change (%, negative = inhibition) at 10uM” value was -0.69%. The value for `COc1cccc(-c2ncc3ccccc3c2COC(=O)CCCC(=O)O)c1` was -2.2%; that for `NC(=S)Nc1ccccc1Br` was -10.5%.

`CCOc1cc(NC(=O)C2CCCCC2)c(OCC)cc1NC(=O)c1ccco1`: the “hERG current change (%, negative = inhibition) at 10uM” value came out at 9.17%.

As for `CC1CCCN(C(c2cccs2)c2nnnn2Cc2ccccc2)C1.Cl` (stereo not drawn), the “hERG current change (%, negative = inhibition) at 10uM” value is -13%. To `Cc1ccc(CC(=O)N2CCN(c3cccc(C(F)(F)F)c3)CC2)cc1` belongs -9.64%. To `Cc1ccccc1OCC(=O)NCC1CCCO1` (stereo not drawn) belongs 13.3%; to `N#Cc1c(F)cccc1N1CCC(C#N)CC1`, 8.29%; to `NC(=O)C1CCN(C(=O)c2ccc(C(F)(F)F)cc2)CC1`, 7.3%. To `O=C(CN1CCOc2ccccc21)N1CCC(Cc2ccccc2)CC1` belongs -26.3%; to `Cc1cccc2c3c([nH]c12)C(=O)CC(C)(C)S3`, 36.5%; to `CC1=C(C(=O)NC2CCCc3c2cnn3-c2ccc(F)cc2F)OCCO1` (stereo not drawn), 17.9%. For the molecule `CN1CCN(c2ccc(S(=O)(=O)N3CCCCC3)cc2NC(=O)/C=C/c2ccc(Cl)c([N+](=O)[O-])c2)CC1`, the “hERG current change (%, negative = inhibition) at 10uM” value is -17.4%. `COC(=O)CNC(=O)COc1ccccc1`: the “hERG current change (%, negative = inhibition) at 10uM” value is on record as 7.53%. `CCCNC(=O)/C=C/c1ccc(S(=O)(=O)Nc2ccccc2OC)cc1`: the “hERG current change (%, negative = inhibition) at 10uM” value is -1.75%. To `COc1ccc(CN2CCNC(=O)C2CC(=O)NC2CCCCC2)c(OC)c1` (stereo not drawn) belongs -0.841%. With `S=c1[nH]nc(-c2cc3c(s2)-c2ccccc2CC3)o1`, the “hERG current change (%, negative = inhibition) at 10uM” value came to 13.1%. Turning to `CCOC(=O)N1CCC(NC(=O)c2cnc3n(c2=O)CCS3)CC1`, the “hERG current change (%, negative = inhibition) at 10uM” value amounted to 6.23%. On to `CC(=O)c1c(C(C)=O)c(C)n(-c2nc(-c3ccc(Br)cc3)c(C)s2)c1C`, for which the “hERG current change (%, negative = inhibition) at 10uM” value is reported as 20%. On to `CCC(=O)Nc1ccccc1C(=O)OCC(=O)c1ccccc1`, for which the “hERG current change (%, negative = inhibition) at 10uM” value is reported as -28.1%. To `O=S1(=O)CCC(NS(=O)(=O)/C=C/c2ccccc2)C1` (stereo not drawn) belongs -0.272%; to `COc1cc(OC)c(NC(=O)CCNC(=O)Cn2ccc3ccccc3c2=O)cc1Cl`, 7.45%; to `CC(C)(C)n1nc(-c2ccc(Cl)cc2)c2c(N)ncnc21`, 13%.

In the case of `N#Cc1ccc(C(=O)OCC(=O)NC(=O)NC2CCCCC2)cc1`, the “hERG current change (%, negative = inhibition) at 10uM” value is on record as 8.67%. With `Cc1cc(NC(=O)/C=C/C(=O)N(CC(=O)NC2CCCC2)c2cccc3ccccc23)no1`, the “hERG current change (%, negative = inhibition) at 10uM” value is -3.79%. For `CCC(C)(C(=O)NC1CCCCC1)N(Cc1cccs1)C(=O)CC1NC(=O)NC1=O` (stereo not drawn), the “hERG current change (%, negative = inhibition) at 10uM” value is given as -1%.

For the molecule `COc1ccccc1N1CCN(C(=O)C(C)N(c2ccc(C)c(C)c2)S(C)(=O)=O)CC1` (stereo not drawn), the “hERG current change (%, negative = inhibition) at 10uM” value was -6.79%. The value for `Cc1cc(OCC(=O)N2CCC[C@@H]2C(=O)O)c2c(C)c(C)c(=O)oc2c1` was 7.84%; that for `CN1C(=O)C(=CN2CCN(C(=O)c3ccco3)CC2)C(=O)N(C)C1=S` was 3.18%. To `O=C(NNC(=O)c1cc2cc(Br)ccc2oc1=O)c1ccc(O)cc1O` belongs 35.4%.

In the case of `CCC(=O)Oc1c(S(=O)(=O)c2ccc(C)cc2)c(C)nn1C(C)(C)C`, the “hERG current change (%, negative = inhibition) at 10uM” value is -8.98%. To `CCOC(=O)c1cc2n(c1/N=C/N(C)C)-c1ccccc1C2=O` belongs 2.49%; to `COc1ccc(-c2cc(C)no2)cc1S(=O)(=O)N1CCOc2ccc(Cl)cc21`, 7.56%; to `Cc1ccc(-c2nnc(-c3cccc(Br)c3)o2)cc1`, 13.3%. The value for `CCOC(=O)c1ccc(NS(=O)(=O)c2cc3c4c(c2)CCN4C(=O)CC3)cc1` was -9.74%; that for `O=C1COc2ccc(S(=O)(=O)CCC(=O)NC3CCCCC3)cc2N1` was 11.8%. To `Cn1c(CNC(=O)CNS(=O)(=O)c2ccccc2)cc(=O)n(C)c1=O` belongs 26.2%. With `Cc1ccc(C(=O)NCCOc2ccc(Cl)cc2)cc1`, the “hERG current change (%, negative = inhibition) at 10uM” value stood at 1.42%. As for `Br.CC(=O)c1sc(Nc2ccccn2)nc1C`, the “hERG current change (%, negative = inhibition) at 10uM” value was 6.59%. Turning to `Cc1[nH]c2ccccc2c1C(=O)CSC(=S)N(C)C`, the “hERG current change (%, negative = inhibition) at 10uM” value turned out to be 18.8%. On to `O=S(=O)(c1ccc(F)cc1)n1ccc(-c2cccc(OCc3c(F)cccc3Cl)c2)n1`, for which the “hERG current change (%, negative = inhibition) at 10uM” value is recorded as -0.413%. The value for `COc1ccc(NC(=O)N2CCNC(=O)C2CC(=O)Nc2ccc(F)cc2)cc1` (stereo not drawn) was 17.1%; that for `Cc1ccc(C)c(N2CCN(c3cnn(-c4nc5ccccc5s4)c(=O)c3Cl)CC2)c1` was -13.8%. `CC(C)Oc1ccc(OCCNC2CCCC2)cc1`: the “hERG current change (%, negative = inhibition) at 10uM” value was -18.3%. The value for `C/C(=N\OCC(=O)OCC(=O)NCc1ccccc1)c1ccc2c(c1)OCO2` was -5.72%; that for `Cc1ccc2nc(NC(=O)c3ccc(S(=O)(=O)N4CCCc5ccccc54)cc3)sc2c1` was -3.33%; that for `O=C(COc1ccc2ccccc2c1)NNC(=O)c1ccc([N+](=O)[O-])cc1` was -1.08%. To `Cc1oc(C(=O)O)cc1COc1ccc2c3c(c(=O)oc2c1C)CCC3` belongs 9.21%. For `COc1cc(/C=C/C(=O)NCCc2ccc(S(N)(=O)=O)cc2)ccc1OCC#N`, the “hERG current change (%, negative = inhibition) at 10uM” value is on record as 14.8%. To `CC(C)N(C(=O)CSc1ccc(S(=O)(=O)N2CCCCC2)cn1)c1ccccc1` belongs -14.1%. The value for `O=C(CCc1nc(-c2ccccc2)c(-c2ccccc2)o1)OCc1ccc(Br)cc1` was 21.4%. On to `CN(Cc1ccc(F)cc1)C(=O)c1cccc(OCc2ccccc2)c1`, for which the “hERG current change (%, negative = inhibition) at 10uM” value is given as -16.9%. To `O=C(NCc1cccnc1)C1CC(=O)N(c2ccc(F)cc2)C1` (stereo not drawn) belongs -15.1%; to `O=C(NNC(=O)c1ccc2ccccc2c1O)NC1CCCCC1`, 21.9%.

With `CCc1ccc(NC(=O)C(=O)NNC(=O)c2cccs2)cc1`, the “hERG current change (%, negative = inhibition) at 10uM” value is on record as -1.68%. For the molecule `CCN(CC(=O)Nc1ccc(NC(C)=O)cc1)CC(=O)Nc1cccc(Cl)c1`, the “hERG current change (%, negative = inhibition) at 10uM” value is -5.97%. To `COc1ccc(-c2cc(=O)[nH]c(=O)[nH]2)cc1` belongs -3.74%; to `Cn1cnnc1Sc1ccc(/C=C/C(=O)c2ccc(O)cc2)cc1[N+](=O)[O-]`, -0.376%; to `COc1ccc([N+](=O)[O-])cc1N(CC(=O)Nc1ccccc1C(=O)N1CCCC1)S(C)(=O)=O`, -0.288%.

As to `O=C(CSc1nnc(-c2cccnc2)n1Cc1ccccc1)NCc1ccccc1`, the “hERG current change (%, negative = inhibition) at 10uM” value was -14.1%. Consider `O=C1c2ccccc2C(Nc2ccc(Cl)cn2)N1c1ccccn1` (stereo not drawn), for which the “hERG current change (%, negative = inhibition) at 10uM” value is listed as -6.43%.

Turning to `Cc1ccc(NC(=O)CCCCCCCCCCC2COCCO2)c(C)c1` (stereo not drawn), the “hERG current change (%, negative = inhibition) at 10uM” value worked out at 11.8%. For `Cn1ccnc1SC(=O)N1c2ccccc2Sc2ccccc21`, the “hERG current change (%, negative = inhibition) at 10uM” value is reported as -3.05%. Turning to `CC(=O)N1CC(=O)N=C1SCC(=O)Nc1nc(-c2ccccc2)c(-c2ccccc2)s1`, the “hERG current change (%, negative = inhibition) at 10uM” value is reported as -47.2%. Consider `CC1CCN(S(=O)(=O)c2ccc3c(c2)N(CC(=O)NCCCN2CCCCC2C)C(=O)CS3)CC1` (stereo not drawn), for which the “hERG current change (%, negative = inhibition) at 10uM” value is 0.668%. As to `COC(=O)c1nn(-c2ccccc2)nc1-c1nn(-c2ccccc2)nc1C(=O)OC.Cl`, the “hERG current change (%, negative = inhibition) at 10uM” value came out at 1.21%. To `O=C(OC(C(=O)NCc1ccco1)c1ccc(Cl)cc1)c1cccs1` (stereo not drawn) belongs 17.6%; to `O=C(COc1ccc(Cl)cc1)NNC(=O)c1ccncc1`, -16.6%. In the case of `O=C(OCc1cccc(F)c1)c1ccc2c(c1)-c1ccccc1C2=O`, the “hERG current change (%, negative = inhibition) at 10uM” value is given as -4.96%. To `C/C(=C1/SC(N2CCCC2)=NC1=O)c1ccc(Br)cc1` belongs -76.7%.
